These are yes or no findings as the source states them, for the method shown. For some of these results: In cells and extracts the contact can be indirect. Some binding calls cover weakened binding; strength is not graded here. Each block holds one substance with its values, some of them ahead of it.
Legend:
[1] = target: FLAG-tagged OLA1 N230A (human) (UniProt Q9NTK5); experiment: co-IP; HEK293 cells transiently transfected with FLAG-OLA1 constructs (48 hours); IP with anti-FLAG M2 magnetic beads; immunoblot with anti-GSK3β and anti-OLA1
[2] = target: FLAG-tagged OLA1 C-terminal deletion mutant without the TGS domain (∆TGS) (human) (UniProt Q9NTK5); experiment: as above
[3] = target: FLAG-tagged wild-type OLA1 (human) (UniProt Q9NTK5); experiment: as above
[4] = target: GSK3β, endogenous (human (endogenous in HEK293)) (UniProt P49841); experiment: co-IP; protein extracts of non-treated HEK293 cells; IP with anti-GSK3β antibody or control IgG overnight at 4°C, protein A/G plus agarose; immunoblot with anti-OLA1 and anti-GSK3β
[5] = target: HA-tagged GSK3β S9A (constitutively active mutant) (UniProt P49841); experiment: co-IP; HEK293 cells transiently transfected with HA-GSK3β constructs (48 hours); IP with anti-HA antibody overnight at 4°C, protein A/G plus agarose; immunoblot with anti-OLA1 and anti-HA
[6] = target: HA-tagged wild-type GSK3β (UniProt P49841); experiment: as above
[7] = target: His-tagged human OLA1 recombinant protein (human) (UniProt Q9NTK5); experiment: pull-down; His-OLA1 (500 μg) incubated with various amounts of GST-tagged protein in binding buffer [6.5 mM NaPO4 (pH 7.4), 140 nM NaCl, 0.02% Tween 20] for 1 hour at room temperature; His-OLA1 precipitated with Dynabeads His-tag isolation system; immunoblot with anti-GST; both purified

By UniProt entry, the sequences of proteins in these tests, tags left out. Where a name states a change or a piece, a line headed by the entry shows the natural chain unless it says otherwise.
UniProt P49841: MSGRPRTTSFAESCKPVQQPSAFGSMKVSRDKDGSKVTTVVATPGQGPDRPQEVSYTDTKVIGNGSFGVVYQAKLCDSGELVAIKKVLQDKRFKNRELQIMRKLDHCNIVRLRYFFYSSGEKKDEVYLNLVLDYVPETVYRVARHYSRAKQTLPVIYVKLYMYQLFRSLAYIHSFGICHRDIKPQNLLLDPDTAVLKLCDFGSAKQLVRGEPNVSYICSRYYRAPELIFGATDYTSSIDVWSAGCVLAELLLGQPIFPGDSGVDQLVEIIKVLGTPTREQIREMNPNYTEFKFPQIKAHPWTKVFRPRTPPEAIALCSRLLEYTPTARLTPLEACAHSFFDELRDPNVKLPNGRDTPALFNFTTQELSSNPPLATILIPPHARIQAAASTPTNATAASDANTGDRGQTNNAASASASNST

binding [1]: binds | binding [2]: no binding | binding [3]: binds
Substance: GSK3β, endogenous (from UniProt P49841 1-420)

binding [4]: binds | binding [5]: binds | binding [6]: binds
Substance: Obg-like ATPase 1 (OLA1), endogenous (from UniProt Q9NTK5 1-396)

binding [7]: binds
Substance: recombinant GSK3β-GST fusion protein (from UniProt P49841 1-420)
